# Measured values from a collection of fitness landscapes (doi:10.1016/j.celrep.2020.107928).
# Whole data set: some 81,000 sequences, median “one-hybrid fitness for binding parS DNA” near -0.17, cut for the highest 2% near 0.51. This is one part of the list.
# B1: Caulobacter ParB omega fusion; a variant is named by its letters at X, in order, B8GW30 (parent)
# chain: MESVVVGEPGMSEGRRGLGRGLSALLGEVDAAPAQAPGEQLGGSREAPIEILQRNPDQPRRTFREEDLEDLSNSIREKGVLQPILVRPSPDTAGEYQIVAGERAWRAAQRAGLKTVPIMVRELDDLAVLEIGIIENVQRADLNVLEEALSYKVLMEKFERTQENIAQTIGKSXSHVANXMRLLXLPDEVQSYLVSGELTAXHARAIAAAADPVALAKQIIEGGLSVRETEALARKAPNLSAGKSKGGRPPRVKDTDTQALESDLSSVLGLDVSIDHRGSTGTLTITYATLEQLDDLCNRLTRGI
# Variants of: B1
# Assay: one-hybrid fitness for binding parS DNA (scaled: cognate 1, non-cognate 0); higher = stronger binding
# Details: with parS DNA site
# How it was run: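 The reporter was HIS3, with the binding site 19 bp from the promoter, in E. coli USO used for bacterial one-hybrid selection of Caulobacter ParB libraries with four specificity codons randomised. Growth was on M9 lacking histidine, with 0.1 mM IPTG and 5 mM 3-AT, for 48 hours at 37°C. Illumina sequencing covered plasmids before and after selection; three replicate libraries were pooled and variants with under 10 reads dropped. A fitness score is the log change in variant-to-wild-type read ratio, rescaled to the cognate and non-cognate references.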
row,Variant,one-hybrid fitness for binding parS DNA
1,QRTS,≤ 0.2
2,GTQC,≤ 0.2
3,NMDM,≤ 0.2
4,FTPH,≤ 0.2
5,VLNW,≤ 0.2
6,MLQK,≤ 0.2
7,LCPL,≤ 0.2
8,RQNN,0.435
9,SPDE,≤ 0.2
10,HRYT,0.202
11,TVPA,≤ 0.2
12,NETV,≤ 0.2
13,SYYM,≤ 0.2
14,DNLY,≤ 0.2
15,IMHE,≤ 0.2
16,ATMH,≤ 0.2
17,PRRI,≤ 0.2
18,SNHD,≤ 0.2
19,LLNK,≤ 0.2
20,GLPE,≤ 0.2
21,LAEM,≤ 0.2
22,ESRP,≤ 0.2
23,TKAE,≤ 0.2
24,ARGC,≤ 0.2

row,Variant,one-hybrid fitness for binding parS DNA
1,QMWG,≤ 0.2
2,DGAK,≤ 0.2
3,YCPV,≤ 0.2
4,GWLG,≤ 0.2
5,CIYD,≤ 0.2
6,TAMY,≤ 0.2
7,AVKV,≤ 0.2
8,GNLL,≤ 0.2
9,PQPE,≤ 0.2
10,CCTP,≤ 0.2
11,FRPH,≤ 0.2
12,ENSR,≤ 0.2
13,QGVI,≤ 0.2
14,WRDT,≤ 0.2
15,YTHT,≤ 0.2
16,WAFC,≤ 0.2
17,CHTE,≤ 0.2
18,ANEM,≤ 0.2
19,RSKH,0.274
20,RPWT,≤ 0.2
21,RGWN,≤ 0.2
22,QAKD,≤ 0.2
23,STTL,≤ 0.2
24,NPMR,≤ 0.2

row,Variant,one-hybrid fitness for binding parS DNA
1,YAVS,≤ 0.2
2,AQDS,≤ 0.2
3,IQDS,≤ 0.2
4,RCPQ,≤ 0.2
5,GCWR,≤ 0.2
6,KAGT,≤ 0.2
7,PNYA,≤ 0.2
8,YGPR,≤ 0.2
9,DTYA,≤ 0.2
10,GALY,≤ 0.2
11,YAEK,≤ 0.2
12,PDPE,≤ 0.2
13,RPWA,≤ 0.2
14,RELR,≤ 0.2
15,IGYC,≤ 0.2
16,SVLS,≤ 0.2
17,QEVC,≤ 0.2
18,HHEC,≤ 0.2
19,SMDF,≤ 0.2
20,ADLF,≤ 0.2
21,PLKW,≤ 0.2
22,ENIK,≤ 0.2
23,QPTK,≤ 0.2
24,AVDR,≤ 0.2

row,Variant,one-hybrid fitness for binding parS DNA
1,RVMM,0.287
2,RQYS,1
3,VVLG,≤ 0.2
4,QVPM,≤ 0.2
5,EPVR,≤ 0.2
6,WKKR,≤ 0.2
7,TAPM,≤ 0.2
8,DNRY,≤ 0.2
9,RIDQ,≤ 0.2
10,NRWA,≤ 0.2
11,LREF,≤ 0.2
12,AYQY,≤ 0.2
13,EKEG,≤ 0.2
14,ESQE,≤ 0.2
15,PTIY,≤ 0.2
16,IFTG,≤ 0.2
17,ASTH,≤ 0.2
18,SAYT,≤ 0.2
19,EVSV,≤ 0.2
20,ITHW,≤ 0.2
21,KRSL,≤ 0.2
22,SYGF,≤ 0.2
23,QRSF,≤ 0.2
24,NQTF,0.258

row,Variant,one-hybrid fitness for binding parS DNA
1,VYHA,≤ 0.2
2,RSMH,0.245
3,QQGF,≤ 0.2
4,LKFS,≤ 0.2
5,PNTF,≤ 0.2
6,RLCR,≤ 0.2
7,GMYA,≤ 0.2
8,AEHS,≤ 0.2
9,TFRD,≤ 0.2
10,NEQS,≤ 0.2
11,LIHA,≤ 0.2
12,KSQI,≤ 0.2
13,GDDT,≤ 0.2
14,KGYF,≤ 0.2
15,QGDT,≤ 0.2
16,LDIS,≤ 0.2
17,LYYC,≤ 0.2
18,GQSM,≤ 0.2
19,RENV,≤ 0.2
20,RIKM,0.325
21,HNLL,≤ 0.2
22,PPPM,≤ 0.2
23,AIHC,≤ 0.2
24,VMSA,≤ 0.2

row,Variant,one-hybrid fitness for binding parS DNA
1,VTCS,≤ 0.2
2,TNQR,≤ 0.2
3,FYTR,≤ 0.2
4,PQVA,≤ 0.2
5,SMVP,≤ 0.2
6,LCAW,≤ 0.2
7,CNNV,≤ 0.2
8,LINF,≤ 0.2
9,TTYV,≤ 0.2
10,CPIS,≤ 0.2
11,VDMS,≤ 0.2
12,PHRW,≤ 0.2
13,SLKA,≤ 0.2
14,THIF,≤ 0.2
15,VYGL,≤ 0.2
16,TNPC,≤ 0.2
17,TYSA,≤ 0.2
18,CIQG,≤ 0.2
19,RWFR,≤ 0.2
20,GATN,≤ 0.2
21,MGFL,≤ 0.2
22,VNTR,≤ 0.2
23,LTHK,≤ 0.2
24,QKQG,≤ 0.2

row,Variant,one-hybrid fitness for binding parS DNA
1,PSRD,≤ 0.2
2,ALEG,≤ 0.2
3,HLQY,≤ 0.2
4,KYKK,≤ 0.2
5,SKFS,≤ 0.2
6,RYSV,≤ 0.2
7,RAVP,≤ 0.2
8,GLKS,≤ 0.2
9,PRMP,≤ 0.2
10,HTKA,≤ 0.2
11,CKST,≤ 0.2
12,TSTC,≤ 0.2
13,EMHY,≤ 0.2
14,AVKC,≤ 0.2
15,FIVE,≤ 0.2
16,PRTR,≤ 0.2
17,TVSC,≤ 0.2
18,RLYN,0.487
19,QATM,≤ 0.2
20,RNRA,0.534
21,KYAC,≤ 0.2
22,HMYT,0.26
23,FICL,≤ 0.2
24,MTPT,≤ 0.2

row,Variant,one-hybrid fitness for binding parS DNA
1,SALH,≤ 0.2
2,GYAG,≤ 0.2
3,DTKE,≤ 0.2
4,RTNF,0.403
5,AIRL,≤ 0.2
6,KFSL,≤ 0.2
7,ENRS,≤ 0.2
8,RGTV,≤ 0.2
9,QPGV,≤ 0.2
10,IEIW,≤ 0.2
11,AQLR,≤ 0.2
12,FFRV,≤ 0.2
13,QCMV,≤ 0.2
14,SKST,≤ 0.2
15,TWLS,≤ 0.2
16,AQPW,≤ 0.2
17,PKDC,≤ 0.2
18,PQQP,≤ 0.2
19,TRYC,≤ 0.2
20,QTNR,≤ 0.2
21,TMPM,≤ 0.2
22,ISKS,≤ 0.2
23,WADG,≤ 0.2
24,PSFV,≤ 0.2

row,Variant,one-hybrid fitness for binding parS DNA
1,VRKH,≤ 0.2
2,LCNM,≤ 0.2
3,CDHF,≤ 0.2
4,PCCC,≤ 0.2
5,LYVG,≤ 0.2
6,GHND,≤ 0.2
7,HEER,≤ 0.2
8,MQLP,≤ 0.2
9,WNHC,≤ 0.2
10,HDRT,≤ 0.2
11,TGHS,≤ 0.2
12,HNRP,≤ 0.2
13,FKPT,≤ 0.2
14,YHLT,≤ 0.2
15,TITR,≤ 0.2
16,TGHF,≤ 0.2
17,QCNC,≤ 0.2
18,LRNS,≤ 0.2
19,CVLG,≤ 0.2
20,DNYM,≤ 0.2
21,SWQI,≤ 0.2
22,RPLY,≤ 0.2
23,YHCN,≤ 0.2
24,LRVR,≤ 0.2

row,Variant,one-hybrid fitness for binding parS DNA
1,VHLK,≤ 0.2
2,VNEL,≤ 0.2
3,PFAY,≤ 0.2
4,NNTL,≤ 0.2
5,YTDS,≤ 0.2
6,EKSL,≤ 0.2
7,AKYT,≤ 0.2
8,IVQY,≤ 0.2
9,ENKS,≤ 0.2
10,RTIS,1.01
11,GRIT,≤ 0.2
12,ENLS,≤ 0.2
13,LSHM,≤ 0.2
14,DNDG,≤ 0.2
15,AQPS,≤ 0.2
16,TSMR,≤ 0.2
17,PMAW,≤ 0.2
18,FDNR,≤ 0.2
19,WLHS,≤ 0.2
20,LVWT,≤ 0.2
21,FTLT,≤ 0.2
22,TLSF,≤ 0.2
23,CVAG,≤ 0.2
24,VLVR,≤ 0.2

row,Variant,one-hybrid fitness for binding parS DNA
1,HAWG,≤ 0.2
2,ESVP,≤ 0.2
3,DTHV,≤ 0.2
4,APCC,≤ 0.2
5,LMIQ,≤ 0.2
6,RCEC,0.866
7,QDTT,≤ 0.2
8,LKWV,≤ 0.2
9,ERGA,≤ 0.2
10,LSDV,≤ 0.2
11,RYVF,≤ 0.2
12,NIFS,≤ 0.2
13,RYMC,0.994
14,LMQG,≤ 0.2
15,MTAY,≤ 0.2
16,QHSF,≤ 0.2
17,RMDN,0.375
18,CFLC,≤ 0.2
19,RHIY,0.207
20,IVFT,≤ 0.2
21,DPIG,≤ 0.2
22,AIVP,≤ 0.2
23,NCEM,≤ 0.2
24,RMWR,≤ 0.2

row,Variant,one-hybrid fitness for binding parS DNA
1,WQPK,≤ 0.2
2,APWK,≤ 0.2
3,PSGE,≤ 0.2
4,CNLT,≤ 0.2
5,QLRS,≤ 0.2
6,ILAK,≤ 0.2
7,NFPF,≤ 0.2
8,LEAN,≤ 0.2
9,LVPS,≤ 0.2
10,RMRV,≤ 0.2
11,ALPG,≤ 0.2
12,VALV,≤ 0.2
13,HAYL,≤ 0.2
14,KKVG,≤ 0.2
15,TWRH,≤ 0.2
16,VDES,≤ 0.2
17,YRFT,≤ 0.2
18,RGEG,0.474
19,ITKA,≤ 0.2
20,AINR,≤ 0.2
21,ASYL,≤ 0.2
22,LLDN,≤ 0.2
23,QSHK,≤ 0.2
24,MPMY,≤ 0.2

row,Variant,one-hybrid fitness for binding parS DNA
1,CNLY,≤ 0.2
2,QMVP,≤ 0.2
3,TQNE,≤ 0.2
4,WNLP,≤ 0.2
5,PHTF,≤ 0.2
6,LVLC,≤ 0.2
7,RLTR,≤ 0.2
8,APHS,≤ 0.2
9,TQNK,≤ 0.2
10,TFKG,≤ 0.2
11,RCDR,≤ 0.2
12,RAFL,≤ 0.2
13,FPLI,≤ 0.2
14,WLCR,≤ 0.2
15,HLSI,≤ 0.2
16,ATNK,≤ 0.2
17,SVDI,≤ 0.2
18,AKTF,≤ 0.2
